Whole data set: some 33,000 sequences, median “E-score (-0.5 to 0.5)” near -0.011, cut for the highest 2% near 0.28. The list shows a part of the results.
target: T1, Gcr1 (UniProt P07261); experiment: PBM E-score (8-mer binding enrichment) (E-score (-0.5 to 0.5)); higher = stronger / more preferred TF binding; most listed sequences are background and not binding sites; details: protein concentration: 100 nM; construct: GST-full length
T1 sequence: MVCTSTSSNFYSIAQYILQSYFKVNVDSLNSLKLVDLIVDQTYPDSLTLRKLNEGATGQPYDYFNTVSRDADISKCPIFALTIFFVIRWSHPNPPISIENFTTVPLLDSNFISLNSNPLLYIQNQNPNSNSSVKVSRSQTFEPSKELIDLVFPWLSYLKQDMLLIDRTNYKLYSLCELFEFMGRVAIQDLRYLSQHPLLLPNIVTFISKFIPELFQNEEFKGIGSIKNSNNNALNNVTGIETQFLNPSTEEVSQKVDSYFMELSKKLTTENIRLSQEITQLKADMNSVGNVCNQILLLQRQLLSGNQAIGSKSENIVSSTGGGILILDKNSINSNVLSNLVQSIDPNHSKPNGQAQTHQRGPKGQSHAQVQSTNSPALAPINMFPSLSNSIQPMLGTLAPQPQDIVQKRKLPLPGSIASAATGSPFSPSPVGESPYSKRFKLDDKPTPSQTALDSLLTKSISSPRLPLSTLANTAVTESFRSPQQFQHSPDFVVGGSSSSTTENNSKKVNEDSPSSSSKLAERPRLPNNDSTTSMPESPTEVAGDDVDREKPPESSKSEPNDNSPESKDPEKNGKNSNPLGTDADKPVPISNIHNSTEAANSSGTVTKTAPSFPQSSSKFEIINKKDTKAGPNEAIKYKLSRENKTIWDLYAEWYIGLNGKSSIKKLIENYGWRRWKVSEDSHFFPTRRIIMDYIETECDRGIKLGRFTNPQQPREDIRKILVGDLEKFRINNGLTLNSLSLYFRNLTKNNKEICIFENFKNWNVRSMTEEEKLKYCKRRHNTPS
Summary of the method: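 Detection of bound protein used fluorescent anti-GST, with scans normalised by masliner. The proteins were GST-tagged yeast transcription factors applied at about 100-200 nM to universal all-10-mer Agilent arrays made double-stranded by primer extension. Each ungapped eight-base word, pooled with its reverse complement, was scored with an E-score from the Universal PBM Analysis Suite.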

Sequence | PBM E-score
AAATAGCA | 0.047
ATTTCCAA | 0.0988
AGCTTTAT | 0.114
GGATCCTA | 0.272
CCTGAACG | 0.0377
CTAACGAG | -0.257
GATGCAGA | 0.189
AGGCCCCA | -0.112
CCAACCGA | -0.0275
ACAAACGT | 0.0511
ACAAAGGT | -0.136
ACCCCTAA | 0.117
CGAGGACC | -0.112
AGCTGAGG | -0.18
CCGGTTCG | -0.0186
CGAGCGCC | 0.0329
ACACACAA | 0.102
GGTTCCAC | 0.305
CGCCCGGA | 0.0811
TAAGGTCA | -0.181
AATCGGCG | 0.184
CCATAAGG | -0.0957
ACGTCGCT | 0.00247
CACTGCAA | -0.074
AAACACCA | -0.0248

Sequence | PBM E-score
GTTCAACA | -0.0157
ACGTAGAA | -0.0969
TGAATCAA | 0.0804
ATCATCTC | -0.00135
ATCGCTGG | -0.126
CTAGGTCA | -0.318
CAGTCTAG | 0.0197
AGTTTCCG | 0.176
ATTGGGCA | -0.116
ACGGCCCA | -0.172
CACCTTCC | 0.156
TGCTGCCA | -0.0494
CCCATCAA | 0.12
GAGAACAA | -0.0288
ACTGACGC | -0.142
ATTCCACA | 0.247
AAAGTCTA | -0.0407
GCGAAGGA | 0.0489
AGGACTTG | -0.169
AAGTTCCC | 0.195
GCCCCAGC | -0.0201
GTATAGGA | 0.095
GAATGGGC | 0.174
CGCACGCG | -0.113
CCCCTTCC | -0.153

Sequence | PBM E-score
ATTCACAA | 0.133
ACTAAAGG | 0.0575
ATCCGATG | 0.00075
ATCGGTGG | 0.0966
GATCTGGC | 0.122
GGGGGCAC | 0.0135
CAGAGCAC | -0.0302
AGAGCGGG | 0.00264
CGAAGGCC | -0.157
AACTGGCT | 0.0446
AGGGCCCA | 0.126
ACCCATCA | 0.0102
AGTGAACT | 0.0469
CATACGAA | 0.0396
CTTCCCGC | -0.0343
GTCCCCTA | 0.126
GAGTTGAA | 0.0916
GATAAGGC | -0.0309
AAAAGGCG | 0.217
CCTAATCC | 0.00779
AATAAATC | 0.165
CTCCGCAG | 0.0264
ATATCTGG | 0.088
ACTACGAC | 0.0678
CTTCATTC | -0.0354

Sequence | PBM E-score
TAAATCCA | 0.124
ATACGTGG | 0.169
CGTAGAAG | 0.275
GGTTTGAC | 0.0178
CGGGGAGA | -0.0481
CCCTAAAG | 0.0225
CTGAGCTC | -0.0736
CGTGATCC | -0.0715
CTGGCGCC | 0.319
CACCCTAC | -0.181
CACATTGC | -0.0679
ATCGGATA | 0.0757
CTGCCTTA | -0.0279
GCATATAA | 0.125
CTCGCTCA | 0.0789
GATGCCCA | 0.378
GAGGATGC | 0.423
ACTATATG | -0.0145
TTAGTGAA | 0.133
CAAGGCCC | -0.0748
AGAATCGG | -0.0952
CAAAAGAC | 0.0635
TAAAGTCA | -0.0842
ATGTAGCA | -0.048
AAGCAAGG | -0.155

Sequence | PBM E-score
AACCTCAG | 0.0506
TACCAGGA | 0.19
CTAGAGAA | -0.0591
CTTAGAGA | -0.0742
CGACTCAC | -0.161
CATATCCC | -0.108
GGAAGCAC | 0.188
AGGGGAAT | 0.341
CGTACCTA | -0.0466
TATTGCAA | 0.0581
CGCAAAAG | -0.215
AAAGAGGA | 0.00073
GTATATCA | 0.178
GCCGAGCA | -0.124
AAATTAGC | 0.261
CGGTCAGC | -0.104
CACCTCCC | -0.0996
AAACAACT | 0.0884
GGAAGGGA | -0.135
ACGGCCGC | -0.0654
AGAAGGGA | -0.273
GGAGGTTA | -0.0486
AATGATAC | -0.0759
CACTTCAA | 0.187
CGAGTACC | 0.0157

Sequence | PBM E-score
AGGCGCAC | -0.0868
TTCTGAAA | 0.151
ATACTGTA | -0.0195
CATTTGCC | -0.0181
ACAACCGG | 0.182
GACGTCTA | 0.0862
AGGGTGAA | -0.202
CATATTCA | 0.0277
CGGCATGA | -0.0581
CTTTACCC | -0.105
CCTGAAAC | 0.0634
CACTGATC | -0.142
CGCCCTTA | 0.0154
CCGGACGG | -0.116
CTCTAGGC | 0.102
CTGCGTGC | -0.197
CCCTGCTC | -0.123
GGAGACCA | 0.156
GGTGACCA | 0.0748
CGACCCTA | -0.22
CTTAAATA | 0.223
AGTCGTAT | -0.0273
GCCAGTTA | 0.105
GGCGGACA | -0.0864
AATTGCCG | -0.0754

Sequence | PBM E-score
ACTCCCCG | -0.0222
AAGGGGCT | 0.0171
CAAGTGTG | -0.119
GTGCTTGA | 0.0543
CCCACGCG | -0.12
CGAACACG | 0.00554
GCGTATCC | 0.244
ACCCATTA | 0.224
CGGTACGA | -0.11
GGCTTGGA | -0.0903
CCGATGCG | -0.128
AGTTGGCG | 0.0665
GATTATCA | -0.0147
CGACGTCG | -0.119
GACAGAGA | -0.246
GATGGTAA | -0.192
AATAAAAA | 0.0451
GAGTTAGA | 0.00485
CGAAGTCG | 0.0175
ACCATAGG | 0.00792
CGCGTTTA | 0.0853
AAGGAGAC | -0.0163
